Data taken from PubChem BioAssay AID488969 (Vanderbilt High Throughput Screening Facility, 2010).
The full ranking holds about 110,000 compounds; the median of “z-score” is about -0.1, and the highest 2% start at about 2. This is one part of the list. Active and inactive are the calls of the source.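 Rule for the calls: active = z-score in the third read window above 3 or below -3; inactive = the rest.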

The molecules below were run against Metabotropic glutamate receptor 8 (Rattus norvegicus) (UniProt P70579) (assay: mGluR8 Gi/Go-coupled signaling modulation – cell-based, rat, thallium flux, HTS, primary screen (AID 488969)). Settings: HEK293 rat mGluR8, GIRK (G protein-gated inwardly rectifying potassium channel) thallium flux, FluoZin2; at 10 µM; stronger effect = higher value; submaximal glutamate (EC20) added with thallium.
UniProt P70579, sequence (P70579 whole entry, looked up): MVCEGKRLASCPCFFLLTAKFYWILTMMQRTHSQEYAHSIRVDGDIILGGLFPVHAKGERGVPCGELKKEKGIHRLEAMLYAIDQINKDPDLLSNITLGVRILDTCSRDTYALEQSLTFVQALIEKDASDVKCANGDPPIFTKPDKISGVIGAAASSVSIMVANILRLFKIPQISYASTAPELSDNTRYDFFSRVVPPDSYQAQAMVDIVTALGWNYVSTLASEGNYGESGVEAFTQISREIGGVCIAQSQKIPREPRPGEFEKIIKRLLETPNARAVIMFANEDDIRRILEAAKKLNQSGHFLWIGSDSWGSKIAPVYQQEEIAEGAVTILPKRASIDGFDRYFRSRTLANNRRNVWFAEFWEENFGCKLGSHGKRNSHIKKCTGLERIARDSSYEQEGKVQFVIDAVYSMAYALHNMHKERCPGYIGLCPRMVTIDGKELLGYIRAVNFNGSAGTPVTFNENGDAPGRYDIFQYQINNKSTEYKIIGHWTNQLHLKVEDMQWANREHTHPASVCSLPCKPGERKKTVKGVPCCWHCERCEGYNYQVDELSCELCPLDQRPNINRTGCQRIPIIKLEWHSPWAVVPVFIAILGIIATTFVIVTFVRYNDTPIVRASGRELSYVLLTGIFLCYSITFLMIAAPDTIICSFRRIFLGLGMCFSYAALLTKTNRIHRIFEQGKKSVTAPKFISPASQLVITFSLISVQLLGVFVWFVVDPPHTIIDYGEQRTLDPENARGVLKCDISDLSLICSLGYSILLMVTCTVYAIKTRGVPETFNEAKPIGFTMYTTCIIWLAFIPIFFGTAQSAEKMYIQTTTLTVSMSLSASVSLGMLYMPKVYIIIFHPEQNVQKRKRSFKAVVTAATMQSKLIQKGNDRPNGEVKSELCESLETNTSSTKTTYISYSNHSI

| Structure (SMILES) | z-score |
| --- | --- |
| CCOc1ccccc1NC(=O)c1cc(S(=O)(=O)N2CCC3(CC2)OCCO3)ccc1F | -0.432 |
| OCCSc1nncn1/N=C/c1c[nH]c2ccccc12 | -0.376 |
| Cc1ccc(S(=O)(=O)Nc2nonc2C)cc1 | -0.752 |
| O=C(COn1nnc2ccc(Cl)cc21)NC12CC3CC(CC(C3)C1)C2 | 0.819 |
| COc1ccccc1NC(=O)CSc1nnc(-c2ccoc2C)n1CCc1ccccc1 | -0.845 |
| COC(=O)C(C(=O)OC)C(C)C(C(=O)OC)C(=O)OC | -0.0347 |
| O=C(/C=C/c1cccc2ccccc12)c1ccncc1 | -0.377 |
| Cc1ccc(S(=O)(=O)/N=C(\c2ccccc2)N(C)S(=O)(=O)c2ccccc2)cc1 | 0.936 |
| CN(C1=C(NC(=O)c2ccccc2)C(=O)c2ccccc2C1=O)C1CCS(=O)(=O)C1 (stereo not drawn) | 0.0726 |
| CC(=O)Nc1cc(-c2nn3c(C)nnc3s2)ccc1C | 0.478 |
| Cn1cccc1CNC1CCCCC1 | 0.335 |
| Cc1ccccc1OCC(=O)NNC(=O)Nc1ccc(Cl)cc1 | -0.105 |
| Cc1cccc(OCC(O)CN2C(C)(C)CC(O)CC2(C)C)c1 (stereo not drawn) | active: 9.44 |
| COC(=O)c1cc(OC)c(OCc2cc(C(=O)OC)oc2C)c(OC)c1 | 0.014 |
| Cc1oncc1C(=S)Nc1ccccc1 | active: 12.4 |
| O=C1CNC(=O)/C1=C/c1ccc(O)cc1 | 0.0509 |
| CCN=C1SC(CC(=O)NCC)C(=O)N1CC (stereo not drawn) | -0.21 |

| Structure (SMILES) | z-score |
| --- | --- |
| CCCCCCCc1c(C)nc(N2CCOCC2)[nH]c1=O | -0.697 |
| CCOc1cc(S(=O)(=O)N(CC)CC)ccc1F | 0.423 |
| O=C(CN1CCC(Cc2ccccc2)CC1)Nc1ccc2c(c1)OCCO2 | -0.425 |
| Cc1onc(-c2c(F)cccc2Cl)c1C(=O)NCc1ccccn1 | -0.465 |
| C[C@H](N)c1nnc(SCc2ccc(Cl)cc2Cl)o1 | 0.0221 |
| COc1cccc(-c2nc(CS(=O)CC(=O)NCc3ccccc3Cl)c(C)o2)c1 (stereo not drawn) | 0.0151 |
| COc1cccc(NC(=S)N2CCc3cc(OC)c(OC)cc3C2COc2ccc3c(C)cc(=O)oc3c2)c1 (stereo not drawn) | -0.0316 |
| Cn1c(=O)c2c(SCc3cccnc3)nc(CC(C)(C)C)nc2n(C)c1=O | -0.231 |
| COc1ccc(-c2cc(C(=O)NCCN3CCOCC3)c3ccccc3n2)cc1 | 0.368 |
| CN(C)CCCN(C(=O)CCc1ccccc1)c1nc2ccc(F)cc2s1 | 0.318 |
| CN1CCCc2cc(C=O)ccc21 | -0.347 |
| C=C1N(c2ccc(Cl)cc2)C(=O)OC1(C)C | 0.433 |
| Cn1nnc2cc(C(=O)N3CCCCCC3)ccc21 | -0.0563 |
| Cn1cc(C(=O)Nc2cccc(F)c2)cn1 | 0.0603 |
| CCC(CC)NC(=O)c1ccc2nc[nH]c2c1 | -0.0567 |
| COc1ccccc1NC(=O)CC(=O)CSc1nnc(-c2ccc(C)cc2)n1-c1ccccc1 | -0.428 |
